This is an account of results in article PMC12136788.

The other results are listed elsewhere or left out.

B1: chr2:121605696:121605828:-|CDS|ENSG00000074054|unk|FALSE|unique (ssRNA)
RNA: GGGAGUUCUACAGUCCGACGAUCGAUAGACUAUUUCUCAGACAAACAGAAGUCUGCUGACCUUGAGCAUGACCAGACCAUGUUAGAUAAACUUGUGGAUGGACUUGCUACCUCUUGGGUGAACUCUAGCAAUUACAAGGUAAGCAACAGAGGAUUGAGCAUCA
B2: chr17:18327447:18327548:+|3pUTR|ENSG00000176994|msi1|FALSE|unique (ssRNA)
RNA: GGGAGUUCUACAGUCCGACGAUCGUCAACUCACAGAUUCUGCAGCAGCUGCUCCACCCACAAUAAAGCAAACGCCGACAGGCUAGACCCCAGAUUGCAGGGGCUGCCACCUACAAGGUGGGACCACAGGCUGCCUCACCGGGACAACAGAGGAUUGAGCAUCA
B3: chr5:10264816:10264917:+|3pUTR|ENSG00000150753|msi1_unk|total|mutant (ssRNA)
RNA: GGGAGUUCUACAGUCCGACGAUCAAUGGAUGUCUCGUGAUGCAUCUACAGUUAUUUAUUGUUACAUCCUUUUCCAGACACUGCCGAUGCUAUAAUAAAAACCGCUGUUUGGUAACCACCGUUUCACUUGUUCAAAGCUGUGUACAACAGAGGAUUGAGCAUCA
B4: ENSG00000124766:be:win_3801|3pUTR|ENSG00000124766|bound_else_gene|NA|bound_elsewhere_windowed (ssRNA)
RNA: GGGAGUUCUACAGUCCGACGAUCUGUUUAAUAUAACAUGACAGGCACUAGGACGUCUGCCUUUUUAAGGCAGUUCCGUUAAGGGUUUUUGUUUUUAAACUUUUUUUUGCCAUCCAUCCUGUGCAAUAUGCCGUGUAGAAUAUUCAACAGAGGAUUGAGCAUCA
B5: chr15:34980028:34980129:-|3pUTR|ENSG00000198146|msi1|total|mutant (ssRNA)
RNA: GGGAGUUCUACAGUCCGACGAUCGGUUCUGUUAUUUAAGCCUGUUCUAAGUUUGAUCAAAUGGCAAUGACCCGGUCCCGUUUCCGUUUUUAUUUUUGCAGGAGUCUAUUGCUAAAGAAUUUUAUUUUGAUGCUUGUUAAAUUUCAACAGAGGAUUGAGCAUCA
B6: ENSG00000070961:be:win_1001|CDS|ENSG00000070961|bound_else_gene|NA|bound_elsewhere_windowed (ssRNA)
RNA: GGGAGUUCUACAGUCCGACGAUCAGCCAUUGAAGAGUGAAGAAGGUGGAGAUGGUGAUGAAAAAGAUAAAAAGAAAGCAAAUUUGCCAAAAAAGGAAAAAUCUGUUUUACAAGGGAAACUUACAAAACUGGCUGUUCAGAUUGCAACAGAGGAUUGAGCAUCA
B7: ENSG00000137504:stop:overlap|stop_codon|ENSG00000137504|stop_codon|NA|stop_codon (ssRNA)
RNA: GGGAGUUCUACAGUCCGACGAUCAGGUGUCGGUGGAGUUCUGCUCGGCGUGCGCCCGGAAGGCGUCGUCUUCUCUUAAAAUGUAGGGUCAAGUAAUCUGCUCUUUAUCCGCGUUUACCCCUUUCAACUCCCUUACACCAUGUCCAACAGAGGAUUGAGCAUCA
B8: chr20:56404979:56405080:+|3pUTR|ENSG00000101138|unk|total|mutant (ssRNA)
RNA: GGGAGUUCUACAGUCCGACGAUCCCGCGCCCAGCCUUCCUGAAGCUUUUCCGAACAUGACAGUACUUCUCUGGAUUCAGCACCCGCAGAGUCAGAGAACUCUGAACUCCCCUUGUACAAACAUAAACUUUGCUUUAUAUUUAUCAACAGAGGAUUGAGCAUCA
B9: chr3:157259741:157261133:-|three_prime_utr|ENSG00000197415|control|control|control (ssRNA)
RNA: GGGAGUUCUACAGUCCGACGAUCACUAAAUACCAAUGGAAUUGUUGUCCUUUAAGAAGAAGGGCCUAAAAUGGCAGGAUUCUUAGUAAAUGUCAUACUCUAACAGCUUUAGUAUUGACUUCAGAAUAUAUCUGAUGCCCACAACAACAGAGGAUUGAGCAUCA
B10: chr10:62092816:62092917:+|CDS|ENSG00000150347|msi1|FALSE|unique (ssRNA)
RNA: GGGAGUUCUACAGUCCGACGAUCUUUUACAUCACCGACAAAUUCUCAGCAGCUGUACAGACACUUGGCUGCGGCUACACCUGUAGGAAGUUCAUAUGGGGACCUUUUGCAUAACAGCAUUUACCCUUUAGCUGCUAUAAAUCCCAACAGAGGAUUGAGCAUCA
B11: chr2:42282796:42282970:+|CDS|ENSG00000143924|unk|FALSE|unique (ssRNA)
RNA: GGGAGUUCUACAGUCCGACGAUCAUAUGGUUAUCGAGGAAAGGACUGUAGAGCUAAUGUUUACCUUCUUCCGACCGGGAAAAUAGUUUAUUUCAUUGCAUCAGUAGUAGUACUAUUUAAUUAUGAGGAGAGAACUCAGCGACACAACAGAGGAUUGAGCAUCA
B12: chr7:44573567:44573675:-|CDS|ENSG00000136271|unk|total|mutant (ssRNA)
RNA: GGGAGUUCUACAGUCCGACGAUCCGCACGGGCUCCGGGAAGACGGCCGCUUAUGCUAUUCCGAUGCUGCAGCUGUUGCUCCACCGGAAGGCGGUGGGUAACGAGAGAGCUGAGGGGAGGAAGGAGGCAAGCUCCAAAAGCCUGCAACAGAGGAUUGAGCAUCA
B13: chr1:204554719:204554820:+|3pUTR|ENSG00000198625|unk|total|mutant (ssRNA)
RNA: GGGAGUUCUACAGUCCGACGAUCAAGUACUUUCUUUUGACAGAAAUUUUCAUUCUGCUUGCCAUUGCUAUAUUCUCCCUUUACCGGAGCCAUUGGAUUUCUUUCCUUUUGUGGGAAAUGUCCCAUCCGCAUUUUCAGAUCUUUCAACAGAGGAUUGAGCAUCA
B14: chr2:74214837:74214938:+|3pUTR|ENSG00000065911|msi1_unk|total|mutant (ssRNA)
RNA: GGGAGUUCUACAGUCCGACGAUCCUGUCCUUUUGAGGCUCCGUCAGUUUAUUGGGAAAAUGUUCCGGAUUAUUCCUUGCUAUCCGUACUCAUUUUAUGUAUGUUACCCUUCAGUAAGUUCUCCCCAUUUCCGUUUUCCCGGACCAACAGAGGAUUGAGCAUCA
B15: chrX:149582234:149583179:-|CDS|ENSG00000267978|control|control|control (ssRNA)
RNA: GGGAGUUCUACAGUCCGACGAUCUCCUACAUCCUUGUCACUGCUCUUGGCCUCUCGUGCGAUAGCAUGCUGGGUGAUGGUCAUAGCAUGCCCAAGGCCGCCCUCCUGAUCAUUGUCCUGGGUGUGAUCCUAACCAAAGACAACCAACAGAGGAUUGAGCAUCA
B16: chr3:25618756:25618858:-|CDS|ENSG00000077097|unk|total|mutant (ssRNA)
RNA: GGGAGUUCUACAGUCCGACGAUCUAUAUAAGUUAAAAUACCAGUACAGAUCUAUAUGAUCUGCAAAGUAUAUGUGUUUUGCUCCGGUACUUUUUGAUCAUAUGGGAUGUCUGAAGAAAUAUGAAACUGUGCAAGACAUUCUGACAACAGAGGAUUGAGCAUCA
B17: chr12:100341478:100341579:+|3pUTR|ENSG00000136021|unk|total|mutant (ssRNA)
RNA: GGGAGUUCUACAGUCCGACGAUCCUAUUCUCCUAUUGCUAAAUGUGUGAUAUACCGAGAGGAUGUAUAAAAGGAAAUGGAAACCGACUAUGUACUUGUCUGGUUUUUGUUUGUUUUUAUUUUGGAAUGCUUAUAAGCCUCCUUCAACAGAGGAUUGAGCAUCA
B18: ENSG00000070961:be:win_2351|CDS|ENSG00000070961|bound_else_gene|NA|bound_elsewhere_windowed (ssRNA)
RNA: GGGAGUUCUACAGUCCGACGAUCCUGUCUCAGACCAACGCCAGGUUGUAGCUGUAACUGGUGAUGGUACAAAUGAUGGCCCAGCACUAAAGAAAGCAGAUGUUGGAUUUGCAAUGGGUAUUGCUGGAACUGAUGUAGCUAAAGCAACAGAGGAUUGAGCAUCA
B19: ENSG00000136451:be:win_3501|3pUTR|ENSG00000136451|bound_else_gene|NA|bound_elsewhere_windowed (ssRNA)
RNA: GGGAGUUCUACAGUCCGACGAUCUCCACAGUACAAAAAUGGUUUGUUUUUAAUAUGUAGAGCAUUAUGUGUGGACUACUGGAAGGACUCGUGUAGGGAAAGCCCAAGAAUGACCUUGCUGAGGCCUGGAUUGGGAGGCACAGUCAACAGAGGAUUGAGCAUCA
B20: chr14:92131016:92131127:+|CDS|ENSG00000165934|unk|total|mutant (ssRNA)
RNA: GGGAGUUCUACAGUCCGACGAUCACCCUUUCUGGGGUCCAAGAAGAAUCUGCCCUUUGCUAUCUUCUCCAAGUUGAUGAGUUCCGAUUUUUAUUGGACUGUGGCUGGGAUGAGCACUUUUCUAUGGAUAUUAUUGAUUCCCUGCAACAGAGGAUUGAGCAUCA
B21: chr5:93620789:93620892:-|3pUTR|ENSG00000113391|unk|total|mutant (ssRNA)
RNA: GGGAGUUCUACAGUCCGACGAUCCAGCCCCUCAUCCGAUUGUUUUCUUCCCAGAGCCCAGGGUCGUGAUAUAUACAUCUAAACCGCGUUUUGCAUUAUUUCCCGAUGAGUGCAACUGUCAAAGCAAUAUGGGUUCACUGGUCGCAACAGAGGAUUGAGCAUCA
B22: chr1:165910223:165910324:+|3pUTR|ENSG00000143179|unk|total|mutant (ssRNA)
RNA: GGGAGUUCUACAGUCCGACGAUCCCAGCAUUUGGCCAACUCUGUAUCUGAACUUGAGCUUUCUAUGGAACAAACAAUGGUCUCCGUUUUUUAAGAGCCUCUGGGUCUCUGAUUCCAUGGAGAGUCAGGAGCCGAAUCCGUGGACAACAGAGGAUUGAGCAUCA

This assay has as its target MSI1 full-length (mouse, UniProt Q61474 1-362). Kind of assay: nsRBNS (natural sequence RNA bind-n-seq); RBNS binding buffer (assumed for nsRBNS): 25 mM Tris pH 7.5, 150 mM KCl, 3 mM MgCl2, 0.01% Triton X-100, 500 ug/ml BSA, 20 U/ml SUPERase-In, 4 C; UNK is unkempt and MSI1 is Musashi-1; names of the RNAs are library labels; protein concentration not given here; high values mean tight binding.
Chain of UniProt Q61474 (Q61474 whole entry): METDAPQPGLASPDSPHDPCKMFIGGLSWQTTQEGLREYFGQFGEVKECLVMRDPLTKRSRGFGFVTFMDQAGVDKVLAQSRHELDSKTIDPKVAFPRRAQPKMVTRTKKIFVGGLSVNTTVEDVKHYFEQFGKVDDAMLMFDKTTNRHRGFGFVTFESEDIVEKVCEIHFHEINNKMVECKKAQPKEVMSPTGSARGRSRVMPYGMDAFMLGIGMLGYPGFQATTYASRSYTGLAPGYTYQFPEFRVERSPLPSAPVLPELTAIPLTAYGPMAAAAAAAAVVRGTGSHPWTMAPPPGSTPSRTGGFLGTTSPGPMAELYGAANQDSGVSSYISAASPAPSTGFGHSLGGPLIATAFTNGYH
B1: the binding signal amounted to 0.757 enrichment R.

B2: the binding signal came out at 0.586 enrichment R.

Molecule B3 had a binding signal of 0.42 enrichment R.

B4 displayed a binding signal of 0.374 enrichment R.

Regarding B5, the binding signal was 0.774 enrichment R.

For the molecule B6, the binding signal worked out at 0.484 enrichment R.

B7 registered a binding signal of 0.531 enrichment R.

In the case of B8, the binding signal is 0.613 enrichment R.

Turning to B9, the binding signal turned out to be 0.698 enrichment R.

In turn, B10 displayed a binding signal of 0.508 enrichment R.

Take B11: the binding signal was 8.04 enrichment R.

For B12, the binding signal was found to be 0.413 enrichment R.

Take B13: the binding signal stood at 0.288 enrichment R.

B14: the binding signal was determined as 0.32 enrichment R.

The molecule B15 had a binding signal of 0.444 enrichment R.

Turning to B16, the binding signal came out at 0.423 enrichment R.

Consider B17, for which the binding signal was determined as 0.239 enrichment R.

As for B18, the binding signal came to 0.684 enrichment R.

B19 returned a binding signal of 0.489 enrichment R.

Molecule B20 had a binding signal of 0.295 enrichment R.

B21 displayed a binding signal of 0.446 enrichment R.

On to B22, for which the binding signal is 0.321 enrichment R.
